According to PubChem BioAssay AID1159614 (National Center for Advancing Translational Sciences (NCATS), 2016):
Screen size: about 45,000 compounds; about 65 (0.1%) were called active. Calls come from the whole dose curve; as a rule, active = well fitted activation curve with a large enough effect; inconclusive = small, poorly fitted or top-dose-only effect; inactive = no such curve, though single readings can be large or run the other way. The list shows a part of the results.

Molecular target: Galactocerebrosidase (Homo sapiens) (UniProt P54803)
Assay: A Novel Cell-Based Assay to Identify Small Molecules for B -Galactocerebrosidase; note: nearly all actives have a fitted effect of over 65% in size; for activation: 0% is about no effect
Conditions: 145M-Twi-hGALC-G270D cells (Twitcher mouse brain line with human GALC G270D), HMU-beta-Gal fluorescence, 48 h; series mostly up to 57.5 µM; activation: at the top concentration
Summary of the method: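 Live 145M-Twi cells (Twitcher mouse brain-derived, GALC-null) stably expressing human GALC-G270D, with a wild-type GALC line, were compound-treated. Residual GALC activity was then read as fluorescence from 0.1 mM final HMU-β-gal at pH 5.2; higher signal means activation.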
Potency is the fitted concentration of half-maximal effect.

Chain of UniProt P54803 (P54803 whole entry, looked up): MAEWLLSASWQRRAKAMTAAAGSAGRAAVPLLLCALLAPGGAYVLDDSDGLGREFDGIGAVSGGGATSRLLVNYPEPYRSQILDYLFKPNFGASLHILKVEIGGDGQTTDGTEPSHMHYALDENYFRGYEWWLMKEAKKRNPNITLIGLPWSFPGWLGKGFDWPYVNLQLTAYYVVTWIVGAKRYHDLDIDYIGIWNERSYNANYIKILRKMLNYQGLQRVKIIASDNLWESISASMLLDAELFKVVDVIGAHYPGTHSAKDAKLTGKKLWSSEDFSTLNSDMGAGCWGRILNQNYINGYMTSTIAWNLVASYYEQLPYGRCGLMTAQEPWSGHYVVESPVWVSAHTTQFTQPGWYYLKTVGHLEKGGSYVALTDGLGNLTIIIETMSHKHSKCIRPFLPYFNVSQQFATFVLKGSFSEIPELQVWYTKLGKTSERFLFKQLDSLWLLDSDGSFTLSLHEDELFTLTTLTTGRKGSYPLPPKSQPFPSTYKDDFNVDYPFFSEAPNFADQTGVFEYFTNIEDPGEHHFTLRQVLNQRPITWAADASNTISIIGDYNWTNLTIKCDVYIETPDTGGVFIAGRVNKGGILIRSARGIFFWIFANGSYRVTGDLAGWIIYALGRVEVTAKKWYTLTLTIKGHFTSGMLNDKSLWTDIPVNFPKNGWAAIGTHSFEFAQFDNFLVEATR

SMILES	activation	Potency
COc1ccc(CCNC(=O)c2ccc3c(c2)nc2n3CCOC2)cc1OC	inactive: -14.6%	–
Cc1ccc(C(=O)COC(=O)C(Cc2c[nH]c3ccccc23)NC(=O)c2ccc(Br)cc2)cc1 (stereo unspecified)	inactive: -14.7%	–
COc1ccc(NC(=O)C2=C(C)Nc3nc(SC)nn3C2c2cc(OC)ccc2OC)cc1 (stereo unspecified)	inactive: 3.59%	–
Cc1nnc(N2CCC(C(=O)NCc3ccc(N(C)C)cc3)CC2)c2nn(-c3ccccc3)c(C)c12	inactive: -25.3%	–
O=C(NCCCO)C(=O)Nc1c2c(nn1-c1ccc(F)cc1)CSC2	inactive: -7.04%	–
CCc1nn(CC(=O)NCc2cccc(OC)c2OC)c(=O)c2cc3occc3n12	inactive: -9.51%	–
Cc1cc2oc(C(=O)Nc3cccc(-c4nc5ccccc5o4)c3)c(C)c2cc1Cl	inactive: -12.3%	–
O=C(Nc1ccc(Cl)cc1)c1ccc2c(c1)N(Cc1ccccc1)C(=O)c1ccccc1S2(=O)=O	inactive: -21.3%	–
COc1ccc(OC)c(CNC(=O)Cn2nc(C)c3c(C)n(-c4ccccc4)nc3c2=O)c1	inactive: -0.925%	–
CCOc1ccccc1CNC(=O)CC(C)n1ccc(C)n1 (stereo unspecified)	inactive: -7.18%	–
CN(CC(=O)Nc1cccc(C#N)c1)S(=O)(=O)c1cc2c(cc1Cl)NC(=O)CO2	inactive: -1.7%	–
O=C(CSc1nc2ccccc2n1Cc1cccc(Cl)c1)N1CCN(c2ccc(F)cc2)CC1	inactive: -12.1%	–
c1ccc(N2CCN(c3ncnc4c3nc3n4CCCC3)CC2)cc1	inactive: -5.91%	–
COc1cc(C(=O)NCc2ccc3c(c2)CCN3C(=O)c2ccncc2)cc(OC)c1OC	inactive: -35.1%	–
Cc1ccc(NC(=O)NCCc2c(C)nn(C)c2C)c(Cl)c1	inactive: -1.86%	–
CCCCSc1ncnc2c1sc1nc(N3CCOCC3)c3c(c12)CCCC3	inactive: -19.5%	–
COCCCNC(=O)CN1C(=O)c2c(c3ccccc3n2C)C1c1ccc(OC)cc1 (stereo unspecified)	inactive: -11.3%	–
COc1cccc(/C=C/c2nc(C#N)c(N(C)Cc3ccccc3)o2)c1	–	active: 25.1 µM
COc1ccc(-c2noc(CSCC(=O)Nc3ccc(C)cc3Br)n2)cc1OC	inactive: -0.65%	–
Fc1ccc(CNc2nc3c(-c4ccc(F)cc4)nnn3c3ccccc23)cc1	inactive: 4.34%	–
CC1=C(C(=O)Nc2ccc(C)cc2)C(c2ccccc2Cl)n2nnnc2N1 (stereo unspecified)	inactive: 4.27%	–

SMILES	activation	Potency
CCOc1ccc(CNC(=O)COc2cc(=O)n(C)c3ccccc23)cc1	inactive: -15.6%	–
COc1cccc(NC(=O)c2cc(CN3CCOCC3)on2)c1	inactive: -15.4%	–
CCC(=O)N1CCc2cc(Br)cc(S(=O)(=O)CCC(=O)NCc3ccccc3)c21	inactive: -11.2%	–
O=c1ccc2cc(S(=O)(=O)N3CCCC3)ccc2[nH]1	inactive: 3.17%	–
CCCCCCCCCCCCCCCC[N+](C)(C)Cc1ccccc1	inactive: -13.3%	–
COc1ccccc1CNC(=O)c1c2c(nc3ccccc13)C(=O)N(C1CCCCC1)C2	inactive: -13.6%	–
Cc1nn2c(=O)cc(COC(=O)c3ccc(C(C)(C)C)cc3)nc2s1	inactive: -17.7%	–
CSc1cccc(NC(=O)CN(C)S(=O)(=O)c2ccc3c(c2)n(C)c(=O)c(=O)n3C)c1	inactive: -4.05%	–
COc1ccc(CCNC(=O)c2ccc(CS(=O)(=O)c3ccc(C)cc3)o2)cc1OC	inactive: -16.7%	–
COc1cccc(N2CCN(S(=O)(=O)c3ccc(-c4cnc(C5CC5)o4)cc3)CC2)c1	inactive: -9.29%	–
CCOC(=O)C1CCCN(CCC(=O)Nc2ccc(OC)cc2OC)C1 (stereo unspecified)	inactive: -6.16%	–
O=C(Nc1c(C(=O)N2CCN(c3ccc(F)cc3)CC2)oc2ccccc12)c1ccco1	inactive: -13.6%	–
COc1ccc(CNC(=O)CCc2c(C)nc3c(c2C)c(=O)n(C)c(=O)n3C)cc1	inactive: -0.136%	–
CCn1cc(C(=O)NCCc2ccccc2)c(=O)c2cc(S(=O)(=O)N3CCOCC3)ccc21	inactive: 3.23%	–
O=C(CSc1nc2ccccc2n1Cc1ccc(F)c(Cl)c1)N1CCN(c2ccc(F)cc2)CC1	inactive: -2.75%	–
Cc1cccc(-n2ccnc2SCC(=O)Nc2ccccc2C(F)(F)F)c1	inactive: -20.1%	–
CCc1ccc(NC(=O)CSC2=Nc3ccccc3C3=NC(CCC(=O)NCc4cccs4)C(=O)N23)cc1 (stereo unspecified)	inactive: -3.03%	–
CCCc1nn2c(=O)cc(COC(=O)c3ccc(NC(=O)c4cccs4)cc3)nc2s1	inactive: -18.1%	–
COc1ccc(OC)c(CCNC(=O)CCCc2nnc3n(C)c(=O)c4sccc4n23)c1	inactive: -3.88%	–
COc1cccc(N2C(=O)CSC23C(=O)N(CC(=O)Nc2cc(C)ccc2C)c2ccccc23)c1 (stereo unspecified)	inactive: -20.2%	–
COC(=O)c1ccc(NC(=O)c2nn(C)c3c2CS(=O)(=O)c2ccccc2-3)cc1	inactive: -6.1%	–

SMILES	activation	Potency
CCOC(=O)c1cc2c(=O)n3ccccc3nc2n(Cc2ccco2)c1=NC(=O)c1cc(C)cc(C)c1	inactive: -14.2%	–
COc1ccc(CCNc2nc3c(c(=O)n(C)c(=O)n3C)n2Cc2ccc(F)cc2)cc1OC	inactive: -19.1%	–
COc1cc(CN2CCc3nc(Nc4ccc5c(c4)OCCO5)ncc3C2)cc(OC)c1OC	inactive: -12.7%	–
CCC(=O)N1CCc2cc(S(=O)(=O)NC(C(=O)NCc3ccc(OC)cc3)C(C)C)ccc21 (stereo unspecified)	inactive: -35.1%	–
Cc1ccc(Cn2c(C)c(CNC3CCCCC3)c(C(=O)O)c2C)cc1	inactive: -9.21%	–
Cc1ccc(Cl)cc1NC(=O)c1oc2ccc(S(=O)(=O)N3CCC4(CC3)OCCO4)cc2c1C	inactive: -8.16%	–
Cc1ccc2sc(N3CCN(C(=O)C4COc5ccccc5O4)CC3)nc2c1C (stereo unspecified)	inactive: -15.7%	–
Cc1cc(C)c(NC(=O)c2sc3nc(C)cc(C)c3c2N)c(C)c1	inactive: -12.9%	–
COc1ccc(C)cc1NC(=O)CN1CCN(CC(=O)Nc2ccccc2F)CC1	inactive: -15.7%	–
CC1CCN(S(=O)(=O)c2ccc3nc(-c4cccnc4)cc(C(=O)NCCCOC(C)C)c3c2)CC1	inactive: -13.3%	–
COc1ccc2[nH]cc(CCNC(=O)Nc3ccccc3C)c2c1	inactive: -11.7%	–
CCCCNC(=O)C1CCC(Cn2c(=O)c3sccc3n(CC(=O)Nc3ccccc3)c2=O)CC1 (stereo unspecified)	inactive: -12.7%	–
N#Cc1ccc(NC(=O)C2Cc3ccccc3CN2S(=O)(=O)c2ccc(F)cc2)cc1 (stereo unspecified)	inactive: 1.99%	–
O=C(COc1ccc(F)cc1)Nc1ccc2nc(SCCOc3ccccc3)sc2c1	inactive: -13.8%	–
CCOC(=O)c1c(C)oc2ccc(N(C(C)=O)S(=O)(=O)c3c(C)cc(C)cc3C)cc12	inactive: -23.8%	–
COC(=O)c1cc2sccc2n1Cc1ccc(F)cc1Cl	inactive: -26.1%	–
COc1ccc(OC)c(CC2C(=O)Nc3ccc(Br)cc32)c1 (stereo unspecified)	inactive: -17.5%	–
Cc1cc(N2CCN(c3cc(Cl)ccc3C)CC2)n2nc(-c3ccccc3)nc2n1	inactive: -19.8%	–
Cc1cc(F)ccc1S(=O)(=O)Nc1cc2c(C(=O)O)c(C)oc2c2ccccc12	inactive: -21%	–
